# Assay results taken from the supplement of paper PMC11417369.
# Some of the results follow.
# Tested on: PF3D7_0420300 AP2 domain 1 (GST-tagged)
# Assay: gcPBM binding intensity (ln(normalized median fluorescence intensity)); higher = stronger DNA binding
# In short: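 The highest Masliner-normalised natural-log median intensity across replicate spots of either probe orientation is reported as binding intensity. GST-tagged P. falciparum DNA-binding domains expressed in E. coli were applied for 1 h to an Agilent 4 × 180k array of primer-extended double-stranded 36-bp intergenic genomic probes plus negative controls, and bound protein was detected with Alexa488 anti-GST antibody and scanned at 488 nm.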
row,Sequence,gcPBM binding intensity (ln)
1,ATTCTTAAATGTGGTTGTACATATTATCACCTTTAA [XGTACX_site8188],9.13
2,TTTTTAATTTTATATACACACATAAAAGATATGAAG [CACACA_site7470],9.13
3,AGTAGATTTTTATTAGTGCATTTTATACTACAAAAA,9.08
4,TATATGTTTAATTTCACACACAAATATACATTTTAA [CACACA_site4171],9.51
5,AAGAAAATGTAGAATTAGAAATAAATGAAGAAATGA [TGCATGCA_negctrl_site548],9.31
6,CATTAGCATTTTATTACACACAATAAATTAGAAGTA [CACACA_site7837],9.4
7,ATATTTATTTATATCATACACACTAATATGTATATT [CACACA_site7576],9.54
8,TATCCCTTAGAATACACACCCATATGAGGGTGAACT [CACACA_site5610],9.15
9,CTTAATGATAAATACATACACACAAAAAATAATATA [CACACA_site2577],9.78
10,TTAATTTCGAATTATTGTACATTAATATATCTACAG [XGTACX_site3314],9.11
11,AAAACAAATAGACACGCACACAAAAAAAAAAAAAAA [CACACA_site801],9.33
12,GAATAAAAAAAAAAAAAAATTTATTTTATAATAAAA [CACACA_negctrl_site1514],8.72
13,ATATATATATATATATGTACATAAATATAAATTTAA [XGTACX_site8715],9.1
14,ATGCAATAATAATGGAGTACATATTAATATTGATCA [XGTACX_site2312],9.28
15,CCTTTTGGATGAAAGTGTACAGGTGAGAAAAATTCC [XGTACX_site3358],9.03
16,AAAAAATATATTAAGGCACACACATACATATATATA [CACACA_site9239],9.88
17,TAATTCTTTATTTTTCGTACGTAAAACAAAAAATAT [XGTACX_site862],8.97
18,AATGTAAAGAACAAAACATGCAACTAGTTTACTTTT [TGCATGCA_site841],9.39
19,TAAGTATATAAAATTACACACTATTTTTTTTCAAGT [CACACA_site1792],9.1
20,TAGAAAAAAGATAGCACACACGGCCCAATATATATA [CACACA_site5354],9.82
21,TCGAATATCTTATAGGTGCATCATAAATACATATGT,9.25
22,TACATTTATAATAATACACACATAAATTTACATTTT [CACACA_site3463],9.44
23,TATGAAAATTAAGTTTGTACACAAGTGGAAAAAAAA [XGTACX_site6129],9.28
24,AAATTAAATAAATTTACACACTAAAAGTTACCTATA [CACACA_site6623],9.24
25,TTTGTTATTTATTAGTGTACAAAAAAGCATTTCAAA [XGTACX_site8729],8.88
